Experimental data from publication PMC12796746, “Profiling the TRPV4 ankyrin repeat domain interactome and its disruption by neuromuscular disease-causing mutations” (The Journal of Biological Chemistry, 2025).

Assays:
Experiment in all cases: peptide or protein array; HuProt Human Proteome Microarray v2.0, full-length human proteins spotted in duplicate; V5-tagged TRPV4 protein in solution at 1 μM, 1 h at 4 °C, 150 mM NaCl, 2.7 mM KCl, 25 mM Trizma base, 0.05% Tween-20, pH 7.4; detected with Alexa Fluor 647 anti-V5; hit: z-score >= 2 (N terminus: both of 2 slides; ARD constructs: at least 2 of 3 slides)
Conditions in all cases: both partners purified
PACSIN2 = molecular target: T1, PACSIN2 (human, UniProt Q9UNF0 1-486)
T1 construct: PACSIN2, human, spotted on the HuProt array; source: bought: CDI Laboratories (HuProt v2.0 microarray)
T1 sequence (looked up): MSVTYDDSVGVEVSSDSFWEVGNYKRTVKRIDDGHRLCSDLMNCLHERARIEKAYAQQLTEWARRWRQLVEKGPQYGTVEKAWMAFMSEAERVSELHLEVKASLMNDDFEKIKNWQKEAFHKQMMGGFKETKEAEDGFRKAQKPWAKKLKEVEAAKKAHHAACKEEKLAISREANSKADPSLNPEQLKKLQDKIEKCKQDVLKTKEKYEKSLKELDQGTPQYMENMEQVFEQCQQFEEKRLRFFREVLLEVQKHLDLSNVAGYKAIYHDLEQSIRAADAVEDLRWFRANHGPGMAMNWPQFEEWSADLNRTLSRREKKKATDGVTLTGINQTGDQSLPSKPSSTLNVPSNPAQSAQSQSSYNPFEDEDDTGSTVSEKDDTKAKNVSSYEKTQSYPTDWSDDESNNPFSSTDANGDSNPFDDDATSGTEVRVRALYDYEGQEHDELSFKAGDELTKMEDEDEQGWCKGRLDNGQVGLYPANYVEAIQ

[1] = molecular target: T2, PSD95 (on the HuProt array) (human, UniProt P78352)
T2 construct: PSD95 (encoded by the DLG4 gene), human, spotted on the HuProt array; also called PDS95; source: bought: CDI Laboratories (HuProt v2.0 microarray)

PKD2L2 = molecular target: T3, PKD2L2 (human, UniProt Q9NZM6 1-624)
T3 construct: PKD2L2, human, spotted on the HuProt array; source: bought: CDI Laboratories (HuProt v2.0 microarray)
T3 sequence (looked up): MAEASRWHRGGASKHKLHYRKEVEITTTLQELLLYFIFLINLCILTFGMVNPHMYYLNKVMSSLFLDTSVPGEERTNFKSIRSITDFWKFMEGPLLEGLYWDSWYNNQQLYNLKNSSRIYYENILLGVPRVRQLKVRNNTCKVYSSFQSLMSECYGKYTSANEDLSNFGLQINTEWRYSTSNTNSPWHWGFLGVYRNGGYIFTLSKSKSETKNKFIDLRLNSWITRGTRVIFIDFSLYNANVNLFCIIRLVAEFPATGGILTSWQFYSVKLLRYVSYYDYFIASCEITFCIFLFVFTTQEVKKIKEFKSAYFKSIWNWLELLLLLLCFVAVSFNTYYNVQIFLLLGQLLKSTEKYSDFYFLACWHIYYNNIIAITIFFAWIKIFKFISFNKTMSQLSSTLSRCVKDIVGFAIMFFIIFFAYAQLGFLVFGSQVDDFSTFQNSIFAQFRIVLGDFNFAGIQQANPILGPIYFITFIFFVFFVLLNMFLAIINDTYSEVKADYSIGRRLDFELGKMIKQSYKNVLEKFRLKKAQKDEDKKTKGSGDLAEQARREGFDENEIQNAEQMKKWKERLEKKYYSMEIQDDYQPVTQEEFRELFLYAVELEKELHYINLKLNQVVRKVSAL

AGO3 = molecular target: T4, AGO3 (human, UniProt Q9H9G7 1-860)
T4 construct: AGO3, human, spotted on the HuProt array; source: bought: CDI Laboratories (HuProt v2.0 microarray)

AKT3 = molecular target: T5, AKT3 (human, UniProt Q9Y243 1-479)
T5 construct: AKT3, human, spotted on the HuProt array; source: bought: CDI Laboratories (HuProt v2.0 microarray)

Measured: binding result

T2 sequence (P78352 whole entry): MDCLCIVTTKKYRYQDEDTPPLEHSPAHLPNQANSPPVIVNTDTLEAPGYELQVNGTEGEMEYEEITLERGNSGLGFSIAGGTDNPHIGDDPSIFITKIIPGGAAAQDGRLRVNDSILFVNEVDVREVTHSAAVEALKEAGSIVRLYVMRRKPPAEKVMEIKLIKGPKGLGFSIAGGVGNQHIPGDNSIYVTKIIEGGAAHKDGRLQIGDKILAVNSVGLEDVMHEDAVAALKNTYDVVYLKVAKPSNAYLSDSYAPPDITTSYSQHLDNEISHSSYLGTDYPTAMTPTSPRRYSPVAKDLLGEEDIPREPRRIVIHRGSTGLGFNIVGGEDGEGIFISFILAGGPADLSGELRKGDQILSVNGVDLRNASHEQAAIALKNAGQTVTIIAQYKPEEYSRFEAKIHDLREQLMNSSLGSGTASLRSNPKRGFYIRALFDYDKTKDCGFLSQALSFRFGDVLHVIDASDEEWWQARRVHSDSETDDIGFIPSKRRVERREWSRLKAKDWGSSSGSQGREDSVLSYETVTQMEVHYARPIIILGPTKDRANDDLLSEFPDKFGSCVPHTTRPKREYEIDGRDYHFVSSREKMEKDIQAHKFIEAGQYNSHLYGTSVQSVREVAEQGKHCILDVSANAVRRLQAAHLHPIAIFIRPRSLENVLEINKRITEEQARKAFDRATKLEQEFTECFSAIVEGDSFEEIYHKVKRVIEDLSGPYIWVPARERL
Chain of AKT3 (Q9Y243 whole entry): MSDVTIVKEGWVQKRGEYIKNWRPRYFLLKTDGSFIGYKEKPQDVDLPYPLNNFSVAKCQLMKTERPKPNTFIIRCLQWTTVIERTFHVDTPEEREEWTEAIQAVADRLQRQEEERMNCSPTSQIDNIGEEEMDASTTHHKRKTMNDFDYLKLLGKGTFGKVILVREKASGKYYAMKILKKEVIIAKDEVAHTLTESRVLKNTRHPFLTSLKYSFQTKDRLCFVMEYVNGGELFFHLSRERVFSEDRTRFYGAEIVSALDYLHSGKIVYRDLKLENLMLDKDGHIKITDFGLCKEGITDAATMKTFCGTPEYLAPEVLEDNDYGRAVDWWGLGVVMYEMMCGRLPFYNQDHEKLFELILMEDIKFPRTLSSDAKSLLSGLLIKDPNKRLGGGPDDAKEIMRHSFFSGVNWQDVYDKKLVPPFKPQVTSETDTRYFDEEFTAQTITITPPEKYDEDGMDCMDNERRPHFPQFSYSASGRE

B1: TRPV4^WT N-terminal domain (IDR and ARD, […]) (domain or fragment)
chain: not shown
notes: TRPV4, human, N-terminal domain (IDR and ARD), […]; also called TRPV4^WT N terminus; full N terminus; source: E. coli BL21(DE3), purified; not shown: His6, C-terminal, kept; V5, C-terminal, kept
binds: PACSIN2 | [1] | PKD2L2 | AGO3 | AKT3
